Experimental data reported in PMC6149971, “In Vivo and In Vitro Activities and ADME-Tox Profile of a Quinolizidine-Modified 4-Aminoquinoline: A Potent Anti-P. falciparum and Anti-P. vivax Blood-Stage Antimalarial” (Molecules : A Journal of Synthetic Chemistry and Natural …, 2017).

What was measured:
[1] = Maximum tolerated dose in CD1 mice; conditions: CD1 mice, up to 100 mg/kg i.p.
hERG = target: T1, hERG (Homo sapiens, UniProt Q12809); assay: hERG [3H]-astemizole radioligand binding assay
T1 construct: expressed in transfected cells
T1 sequence (Q12809 whole entry): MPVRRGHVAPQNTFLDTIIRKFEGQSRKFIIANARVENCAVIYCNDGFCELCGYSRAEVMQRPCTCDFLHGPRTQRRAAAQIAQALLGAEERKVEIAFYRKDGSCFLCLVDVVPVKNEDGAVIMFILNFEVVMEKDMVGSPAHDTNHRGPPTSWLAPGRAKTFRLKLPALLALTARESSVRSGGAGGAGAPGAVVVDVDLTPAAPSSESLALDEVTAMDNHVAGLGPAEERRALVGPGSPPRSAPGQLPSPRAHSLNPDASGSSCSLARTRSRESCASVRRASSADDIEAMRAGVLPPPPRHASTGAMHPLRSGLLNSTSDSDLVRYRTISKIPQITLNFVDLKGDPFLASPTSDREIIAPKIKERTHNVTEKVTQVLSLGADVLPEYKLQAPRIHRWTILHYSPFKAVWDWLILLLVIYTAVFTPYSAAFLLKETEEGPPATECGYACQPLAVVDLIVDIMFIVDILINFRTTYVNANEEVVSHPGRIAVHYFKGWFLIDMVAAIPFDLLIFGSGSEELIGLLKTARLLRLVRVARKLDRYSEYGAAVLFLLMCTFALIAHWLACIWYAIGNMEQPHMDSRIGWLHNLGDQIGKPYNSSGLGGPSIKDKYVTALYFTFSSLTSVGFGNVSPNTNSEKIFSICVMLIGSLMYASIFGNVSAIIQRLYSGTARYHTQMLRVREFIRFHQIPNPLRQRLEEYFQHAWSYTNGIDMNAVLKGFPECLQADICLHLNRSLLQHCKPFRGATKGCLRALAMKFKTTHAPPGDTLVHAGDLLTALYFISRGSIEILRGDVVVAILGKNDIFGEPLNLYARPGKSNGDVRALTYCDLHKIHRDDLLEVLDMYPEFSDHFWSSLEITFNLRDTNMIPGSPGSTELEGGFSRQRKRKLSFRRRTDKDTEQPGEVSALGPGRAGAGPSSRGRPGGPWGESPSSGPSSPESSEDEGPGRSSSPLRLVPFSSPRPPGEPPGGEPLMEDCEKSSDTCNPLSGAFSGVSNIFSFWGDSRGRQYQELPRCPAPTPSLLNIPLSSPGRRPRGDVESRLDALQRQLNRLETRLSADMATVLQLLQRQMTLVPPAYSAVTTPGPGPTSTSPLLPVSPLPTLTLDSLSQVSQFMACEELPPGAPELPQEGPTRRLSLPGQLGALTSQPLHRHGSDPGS
Procedure: [^3H]-astemizole (PerkinElmer ITALIA Spa, Milan, Italy) radioligand binding assays were performed in HEK293 cells membranes stably transfected with the hERG (U04270); non-specific binding was evaluated in the presence of an excess of 10 µM cold astemizole. Experiments were performed at 22 °C for 60 min in triplicate and compounds tested in a range from 0.03 µM to 30 µM. Two separate experiments were performed and data analyzed with non-linear fitting using a four-parameter logistic.

With `Clc1ccc2c(NC[C@@H]3CCCN4CCCC[C@H]34)ccnc2c1` [(−)-AM1, 7-chloro-N-(((1S,9aR)-octahydro-1H-quinolizin-1-yl)methyl)quinolin-4-amine] the “toxic clinical signs or mortality” value [1] was “No toxic clinical signs or mortality” and the Ki (hERG) was 500 to 800 nM.
